Experimental data reported in patent US20260062456A1 (ALPINE IMMUNE SCIENCES, published 2026).

T1: CD80:Fc loaded on anti-human capture sensor (ForteBio Octet AHC) (human, UniProt P33681 35-242)
T1 sequence: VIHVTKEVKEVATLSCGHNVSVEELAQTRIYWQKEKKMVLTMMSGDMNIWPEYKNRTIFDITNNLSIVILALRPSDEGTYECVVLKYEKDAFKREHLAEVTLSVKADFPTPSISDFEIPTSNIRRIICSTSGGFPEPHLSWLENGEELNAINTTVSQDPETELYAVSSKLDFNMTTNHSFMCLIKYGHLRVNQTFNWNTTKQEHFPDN


Key:
[1] = biological target: T1, CD80:Fc loaded on anti-human capture …; experiment: ForteBio Octet, CD80:Fc on AHC sensor, 100 nM
[2] = biological target: T2, PD-1:Fc loaded on anti-human capture sensor (ForteBio Octet AHC) (human, UniProt Q15116 fragment); experiment: ForteBio Octet, PD-1:Fc on AHC sensor, 100 nM
T2 sequence (Q15116 25-167): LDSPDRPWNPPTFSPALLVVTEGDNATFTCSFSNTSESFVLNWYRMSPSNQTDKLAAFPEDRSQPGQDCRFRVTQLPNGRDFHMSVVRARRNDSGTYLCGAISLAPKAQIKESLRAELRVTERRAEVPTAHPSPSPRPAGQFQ

[3] = biological target: T1, CD80:Fc loaded on anti-human capture …; experiment: ForteBio Octet, CD80:Fc response vs WT PD-L1 IgV-Fc
[4] = biological target: T2, PD-1:Fc loaded on anti-human capture …; experiment: ForteBio Octet, PD-1:Fc response vs WT PD-L1 IgV-Fc
[5] = biological target: T2, PD-1:Fc loaded on anti-human capture …; experiment: ForteBio Octet, PD-1:Fc response over CD80:Fc response

| CD80:Fc Response [1] | PD-1:Fc Response [2] | Fold over WT PD-L1 IgV-Fc [3] [fold] | Fold over WT PD-L1 IgV-Fc [4] [fold] | PD-1:CD80 ratio [5] [ratio] | Binder |
| --- | --- | --- | --- | --- | --- |
| 1.59 | 2.34 | 2 | 1.7 | 1.5 | variant PD-L1 IgV-Fc A33D/N45T/N78I (IgV SEQ ID NO 276) (Fc fusion) FTVTVPKDLYVVEYGSNMTIECKFPVEKQLDLDALIVYWEMEDKTIIQFVHGEEDLKVQHSSYRQRARLLKDQLSLGIAALQITDVKLQDAGVYRCMISYGGADYKRITVKVNAAAA[no letters for human IgG1 Fc with C220S R292C N297G V302C (EU numbers)] |
| 0.58 | 0.79 | 0.7 | 0.6 | 1.4 | variant PD-L1 IgV-Fc I20L/F49S (IgV SEQ ID NO 256) (Fc fusion) FTVTVPKDLYVVEYGSNMTLECKFPVEKQLDLAALIVYWEMEDKNIIQSVHGEEDLKVQHSSYRQRARLLKDQLSLGNAALQITDVKLQDAGVYRCMISYGGADYKRITVKVNAAAA[no letters for human IgG1 Fc with C220S R292C N297G V302C (EU numbers)] |
| 0.43 | 0.72 | 0.5 | 0.5 | 1.7 | variant PD-L1 IgV-Fc A33D/S75P (IgV SEQ ID NO 285) (Fc fusion) FTVTVPKDLYVVEYGSNMTIECKFPVEKQLDLDALIVYWEMEDKNIIQFVHGEEDLKVQHSSYRQRARLLKDQLPLGNAALQITDVKLQDAGVYRCVISYGGADYKRITVKVNAAAA[no letters for human IgG1 Fc with C220S R292C N297G V302C (EU numbers)] |
